# According to PubChem BioAssay AID1457 (National Center for Advancing Translational Sciences (NCATS), 2008):
# Out of some 210,000 compounds screened, about 730 (0.35%) were called active. This list was built around the results that the source calls inconclusive (neither active nor inactive); the mix of calls is not that of the screen. Calls come from the whole dose curve; as a rule, active = well fitted inhibition curve with a large enough effect; inconclusive = small, poorly fitted or top-dose-only effect; inactive = no such curve, though single readings can be large or run the other way. Potencies of inconclusive entries are doubtful fits and often do not repeat.
# Assay: qHTS Assay for Identifying the Cell-Membrane Permeable IMPase Inhibitors: Potentiation with Lithium; note: nearly all actives have a fitted effect of over 50% in size
# Details: CHO-M1 cells, IP1 TR-FRET (IP-One), carbachol + lithium; series mostly up to 59.4 µM
# In short: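 Test compounds were applied to CHO-M1 cells previously cultured for 16–30 h at 2000 per well. A small lithium amount accompanied them; after 30 min at 37C, IP1 was quantified by TR-FRET.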
# Potency is the fitted concentration of half-maximal effect.
row,SMILES,Potency
1,O=C(O)Cc1sc(-c2ccccc2)nc1-c1ccccc1,"inconclusive: 10 µM [inhibitor, partial curve]"
2,COC(=O)c1c(C)nc(C)c2c(=O)oc3ccccc3c12,"inconclusive: 28.2 µM [inhibitor, single point]"
3,CC1(C)Cc2c(sc3c2c(N)nc(=S)n3Cc2ccccc2)CO1,"inconclusive: 28.2 µM [inhibitor, single point]"
4,COc1cccc(C(=O)Nc2ccc(C(F)(F)F)n(C)c2=O)c1,"inconclusive: 28.2 µM [inhibitor, single point]"
5,CCC(=O)N1CCc2cc(S(=O)(=O)CCC(=O)N3CCc4ccccc4C3)ccc21,"inconclusive: 22.4 µM [inhibitor, single point]"
6,COc1ccc(-c2noc(COc3ccc4c(c3)OCO4)n2)cc1,"inconclusive: 22.4 µM [inhibitor, single point]"
7,Cc1nc2ccc3nc(NC(=O)c4ccc5c(c4)OCCO5)sc3c2s1,"inconclusive: 28.2 µM [inhibitor, single point]"
8,COc1cc(C(=O)Nc2nc(-c3cc(C)ccc3C)c(C)s2)ccc1OCC(=O)Nc1ccc(F)cc1,"inconclusive: 22.4 µM [inhibitor, single point]"
9,Cc1cc(=O)n2c(C(=O)Nc3ccc(C(=O)OC(C)C)cc3)c(C(=O)Nc3ccccc3)sc2n1,"inconclusive: 28.2 µM [inhibitor, single point]"
10,COc1cc(C(=O)NC(=S)NCc2ccco2)cc(OC)c1OC,"inconclusive: 28.2 µM [inhibitor, single point]"
11,CCCCn1c(-c2ccsc2)nc2c1c(=O)[nH]c(=O)n2CCC,"inconclusive: 28.2 µM [inhibitor, single point]"
12,Cc1ccc2c(Cl)c(C(=O)Nc3ccc4c(c3)OCO4)sc2c1,"inconclusive: 28.2 µM [inhibitor, single point]"
13,Cc1ccccc1OCc1nnc(SCC(=O)Nc2ccc3nc(SCC(=O)Nc4ccccc4)sc3c2)n1C,"inconclusive: 28.2 µM [inhibitor, single point]"
14,O=C(CSc1nc2scc(-c3ccccc3)c2c(=O)[nH]1)NC1CCCCC1,"inconclusive: 25.1 µM [inhibitor, single point]"
15,CCOC(=O)Cn1c(=NC(=O)CSC(C)=O)sc2cc(F)ccc21,"inconclusive: 22.4 µM [inhibitor, single point]"
16,COc1ccnc(NCc2ccc(Cl)cc2)c1C#N,"inconclusive: 12.6 µM [inhibitor, single point]"
17,COc1ccc2cc(Br)ccc2c1CC(=O)NC(C)(C)C,"inconclusive: 11.2 µM [inhibitor, partial curve]"
18,CC(=O)Oc1ccc2c(C)cc(=O)oc2c1,"inconclusive: 11.2 µM [inhibitor, single point]"
19,Cc1ccc(NC(=O)c2cc(-c3ccco3)nc3ccccc23)cc1S(=O)(=O)N1CCOCC1,"inconclusive: 2.51 µM [inhibitor, single point]"
20,Cc1cc(C)n(-c2nc(Nc3ccccc3)nc(-n3nc(C)cc3C)n2)n1,"inconclusive: 8.91 µM [inhibitor, single point]"
21,Cc1ccc(-c2nc3ccccc3[nH]2)cc1NC(=O)c1sc2cc(Cl)ccc2c1Cl,"inconclusive: 28.2 µM [inhibitor, single point]"

row,SMILES,Potency
1,CCOC(=O)CSc1nnc(SCCN2C(=O)c3ccccc3C2=O)s1,inactive
2,Cc1ccc(C)c(NC(=O)CSc2nc(C)cc(C)c2C#N)c1,"inconclusive: 28.2 µM [inhibitor, single point]"
3,COc1ccc(-n2nnc3c(=O)n(Cc4cccc(C)c4)cnc32)cc1,inactive
4,CCOC(=O)c1c(C)[nH]c(C(=O)COC(=O)CNC(=O)c2ccc(Br)cc2)c1C,"inconclusive: 12.6 µM [inhibitor, single point]"
5,COc1ccc(C(=O)/C=C/Nc2cccc(O)c2)cc1,inactive
6,CCOc1ccc2nc3c(cc2c1)CN(CCOC)C(=NC)S3,"inconclusive: 5.01 µM [inhibitor, single point]"
7,CCC(Sc1ccc2nnc(-c3ccc(F)cc3)n2n1)C(=O)O (configuration not stated),"inconclusive: 11.2 µM [inhibitor, single point]"
8,CCCCC(=O)Nc1ccc(C(=O)NN2C(=O)c3ccccc3C2=O)cc1,inactive
9,COc1cccc(N2CC(O)=C(c3nc4ccccc4s3)C2=N)c1,"inconclusive: 28.2 µM [inhibitor, single point]"
10,COc1cccc(-c2cc(=O)c3cc(NC(=O)c4ccc(C)cc4)ccc3[nH]2)c1,"inconclusive: 35.5 µM [inhibitor, single point]"
11,CC1(c2ccccn2)Nc2ccccc2-c2nc3ccccc3n21 (configuration not stated),"inconclusive: 12.6 µM [inhibitor, partial curve]"
12,Cc1cc(NC(=O)c2ccc3nc(-c4ccccc4)c(-c4ccccc4)nc3c2)no1,"inconclusive: 28.2 µM [inhibitor, single point]"
13,O=C(NCCN1CCN(c2ccccc2)CC1)c1ccc2c(c1)[nH]c(=S)n1c3ccccc3nc21,active: 10 µM
14,C[C@H](O)[C@@H]1C(=O)N2C(C(=O)O)=C(SCCN=CN)C[C@@H]12,inactive
15,Oc1ccccc1-c1nc(N2CCN(Cc3ccccc3)CC2)c2ccccc2n1,"inconclusive: 28.2 µM [inhibitor, single point]"
16,CCSc1nnc(NC(=O)CC)s1,inactive
17,COc1ccccc1NC(=O)c1ccccc1NC(=O)c1cc(Cl)ccc1NC(=O)c1ccco1,"inconclusive: 11.2 µM [inhibitor, single point]"
18,Cc1ccc(S(=O)(=O)c2nc(-c3ccc(F)cc3)oc2SCC(=O)NCC2CCCO2)cc1 (configuration not stated),"inconclusive: 28.2 µM [inhibitor, single point]"
19,CNC(=S)NCC(O)c1ccc([N+](=O)[O-])cc1 (configuration not stated),inactive
20,C=CC1=C2C=C(C3CC3)N(Cc3ccc4c(c3)OCO4)C=C2C(=O)C(C)(OC(=O)c2ccco2)C1=O (configuration not stated),inactive
21,Cc1ccc2nc(-c3ccc(NC(=O)CCS(=O)(=O)c4ccccc4)cc3)sc2c1,active: 12.6 µM
